About 2,100 (0.72%) of roughly 290,000 compounds were called active. This list was built around the results that the source calls inconclusive (neither active nor inactive); the mix of calls is not that of the screen. Calls come from the whole dose curve; as a rule, active = well fitted inhibition curve with a large enough effect; inconclusive = small, poorly fitted or top-dose-only effect, or effect the other way; inactive = flat fitted curve, though single readings scatter. Potencies of inconclusive entries are doubtful fits and often do not repeat. Where a structure was tested more than once in an assay, its records may differ in their call.
These compounds were tested against Fructose-bisphosphate aldolase (Giardia intestinalis (strain ATCC 50803 / WB clone C6)) (UniProt A8B2U2) (assay: qHTS Assay for Inhibitors of Fructose-1,6-bisphosphate Aldolase from Giardia Lamblia). Details: purified Giardia FBPA; series mostly up to 59.6 µM.
UniProt A8B2U2, sequence (A8B2U2 whole entry, looked up): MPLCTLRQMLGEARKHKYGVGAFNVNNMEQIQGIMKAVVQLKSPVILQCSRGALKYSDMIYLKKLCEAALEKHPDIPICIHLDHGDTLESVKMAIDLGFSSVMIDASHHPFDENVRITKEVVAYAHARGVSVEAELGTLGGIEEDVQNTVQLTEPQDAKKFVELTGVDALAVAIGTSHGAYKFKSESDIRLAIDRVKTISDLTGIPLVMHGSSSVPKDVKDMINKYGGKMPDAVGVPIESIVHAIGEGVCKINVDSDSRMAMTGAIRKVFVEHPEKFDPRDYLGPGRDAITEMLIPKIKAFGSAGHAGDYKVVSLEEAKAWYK
In short: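 40 nM FBPA preincubated 10 min at RT with compound (up to 57.5 uM final), then substrate plus GAPDH/TPI/NAD/arsenate coupling and diaphorase/resazurin added. Fluorescence read after 20 min at RT, 525/598 nm.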
With `Cc1ccc(O)c(N=Nc2ccc(S(=O)(=O)N3CCCC3)cc2)c1` the Potency was “inactive”.
In the case of `O=C(COc1ccccc1F)N1CCCc2ccccc21`, the Potency is reported as “inactive”.
For `Cc1cc(C)c(OCCCn2ccnc2)c(C)c1`, the Potency was inconclusive: 20 µM [inhibitor, single point].
In the case of `Fc1ccc(CNC(=S)Nc2cccc(Cl)c2)cc1`, the Potency is reported as “inactive”.
With `C=CCOc1c(Cl)cc(CNc2ccc(N(C)C)cc2)cc1OC` the Potency was active: 4.46 µM.
For `Cc1sc2ncnc(N3CCC(C(=O)NCC(=O)Nc4ccc(F)c(F)c4)CC3)c2c1C`, the Potency was “inactive”.
With `COCc1[nH][nH]c(=O)c1/C=N/N1CCOCC1` the Potency was inconclusive: 15.8 µM [inhibitor, single point].
`COc1ccc(/C=N/Nc2cn[nH]c(=O)c2Cl)cc1` was tested, and the Potency was “inactive”.
`O=S(=O)(/N=C(\Sc1ccccc1)c1ccccc1)c1ccc(Cl)cc1` was tested, and the Potency was “inactive”.
For `N#Cc1cccc(NC(=O)N2CCCC3(CCN(C(=O)c4cccc(F)c4)CC3)C2)c1`, the Potency was “inactive”.
For `COCCCNC(=S)Nc1ccc(S(=O)(=O)Nc2cc(OC)nc(OC)n2)cc1`, the Potency was inconclusive: 31.6 µM [inhibitor, partial curve].
`COc1ccc(-c2cnc(N)n2CC2CCCO2)cc1` (configuration not stated) was tested, and the Potency was inconclusive: 31.5 µM [inhibitor, single point].
In the case of `C=CCN(Cc1ccco1)S(=O)(=O)c1ccc(Cl)cc1`, the Potency is reported as “inactive”.
For `O=C(Nc1ncc(Cc2cccc(C(F)(F)F)c2)s1)C1CCCO1` (configuration not stated), the Potency was “inactive”.
In the case of `Cc1cc(C)cc(NC(=O)c2cccnc2)c1`, the Potency is reported as “inactive”.
With `O=C1Nc2cc(C(=O)NCCCN3CCCC3)ccc2S/C1=C/c1ccccc1F` the Potency was “inactive”.
In the case of `S=c1nc[nH]c2c1[nH]c1ccccc12`, the Potency is reported as inconclusive: 28.2 µM [inhibitor, single point].
`Cn1ccc(-c2cc(C(=O)O)c3ccccc3n2)n1` was tested, and the Potency was inconclusive: 15.8 µM [inhibitor, single point].
In the case of `COc1ccc2nc(S(=O)Cc3ncc(C)c(OC)c3C)[nH]c2c1` (configuration not stated), the Potency is reported as active: 15.8 µM.
For `N#CCNC1CC(=O)N(c2ccc(F)cc2)C1=O` (configuration not stated), the Potency was “inactive”.
With `CC1=C(C(=O)OCc2ccccc2)C(c2cccc(Cl)c2Cl)NC(=O)N1CCCCCC(=O)O` (configuration not stated) the Potency was inconclusive: 22.4 µM [inhibitor, single point].
With `O=C(N/N=C/c1cc([N+](=O)[O-])ccc1O)/C(=C\c1cccs1)NC(=O)c1ccccc1` the Potency was inconclusive: 31.5 µM [activator, single point].
For `CCc1ccccc1NC(=O)CSc1nnc([C@@H](N)Cc2ccccc2)o1`, the Potency was inconclusive: 15.8 µM [inhibitor, partial curve].
In the case of `COc1ccc(C2C(C(=O)c3ccco3)=C(O)C(=O)N2c2nnc(C)s2)cc1` (configuration not stated), the Potency is reported as inconclusive: 2.23 µM [inhibitor, full curve, poor fit].
With `O=C(Nc1ccc(-c2noc(CCc3ccccc3)n2)cc1)c1cccnc1` the Potency was inconclusive: 19.9 µM [inhibitor, partial curve].
In the case of `CCC(=O)N1CCN(c2ccccc2NC(=O)COc2cc(C)ccc2C(C)C)CC1`, the Potency is reported as “inactive”.
With `CC1CN(c2cc3nccnc3cc2F)CC(C)O1` (configuration not stated) the Potency was inconclusive: 17.7 µM [inhibitor, single point].
For `Cc1ccc(-c2cc(-c3ccc4c(c3)OCO4)c(C#N)c(N)n2)o1`, the Potency was inconclusive: 17.7 µM [inhibitor, partial curve].
`O=C(CC12CC3CC(CC(C3)C1)C2)NCc1ccncc1` was tested, and the Potency was “inactive”.
With `CCC(=O)Nc1ccc(N2CCN(C(=O)c3ccccc3C)CC2)cc1` the Potency was “inactive”.
`Cc1ccccc1NC(=S)Nc1cccc2cnccc12` was tested, and the Potency was active: 1.99 µM.
With `C=C(C)/C=N/NC(=S)Nc1ccc(S(=O)(=O)N2CCOCC2)cc1` the Potency was inconclusive: 19.9 µM [inhibitor, partial curve].
For `COc1ccc(-c2c(C(C)=O)c(C)n(C)c2C)cc1`, the Potency was “inactive”.
For `O=C(O)CCc1ccc(-c2ccccc2)n1NC(=O)c1cccs1`, the Potency was “inactive”.
With `CC(=O)c1c(C)oc2c1C(=O)c1ccccc1C2=O` the Potency was inconclusive: 0.397 µM [inhibitor, full curve].
In the case of `Cc1cc(Cl)ccc1OCC(=O)NNC(=O)c1cnccn1`, the Potency is reported as inconclusive: 11.2 µM [inhibitor, partial curve].
For `O=C(CN1CCCC1)Nc1ccc2c(c1)CCC2`, the Potency was inconclusive: 17.7 µM [inhibitor, partial curve].
For `CCn1c(Cc2ccc(OC)cc2)nc2ccccc21`, the Potency was inconclusive: 17.8 µM [inhibitor, partial curve].
For `Cc1coc2c(O)cc3c(c12)OC1(N2CCCCC2)C(=O)NCCCC31` (configuration not stated), the Potency was inconclusive: 3.54 µM [inhibitor, full curve].
In the case of `O=C(N/N=C/c1ccc(N2CCOCC2)o1)c1cccc(C(F)(F)F)c1`, the Potency is reported as inconclusive: 15.8 µM [inhibitor, single point].
For `Nc1ccc2nc3c(=O)n(CCc4ccccc4)c(=O)[nH]c3nc2c1`, the Potency was inconclusive: 1.41 µM [inhibitor, full curve].
For `CC(C)N1C(=O)CC(Nc2cccc3cccc(N)c23)C1=O` (configuration not stated), the Potency was inconclusive: 12.6 µM [inhibitor, partial curve].
For `COc1ccc(C2=CSC(/N=C/c3ccc(F)cc3)=NN2)cc1`, the Potency was “inactive”.
`CCOC(=O)c1cc(C#N)c(N2CCN(C(=O)c3cccc(C(F)(F)F)c3)CC2)nc1C(F)(F)F` was tested, and the Potency was “inactive”.
For `COc1ccc(S(=O)(=O)Nc2nc3ccccc3nc2Nc2cccc(C(=O)O)c2)cc1`, the Potency was “inactive”.
In the case of `COc1cccc(NC(=O)CSC2=C(C#N)C(c3ccco3)C3=C(CCCC3=O)N2)c1` (configuration not stated), the Potency is reported as inconclusive: 19.9 µM [inhibitor, single point].
In the case of `CCOC(=O)C1=C(N)Oc2ccc(Br)cc2[C@@H]1[C@@H](C#N)C(=O)OCC`, the Potency is reported as “inactive”.
With `C#CCOCCOCCOCCNc1nc(N2CCN(C(=O)C([C@@H](C)CC)n3cc(C(N)Cc4ccc(O)cc4)nn3)CC2)nc(N2CCN(C(=O)[C@H](CCC(=O)O)n3cc(C(N)Cc4ccc(O)cc4)nn3)CC2)n1` (some centres not stated) the Potency was “inactive”.
With `Oc1c(C(c2ccc(F)cc2)N2CCc3ccccc3C2)sc2ncnn12` (configuration not stated) the Potency was inconclusive: 35.4 µM [inhibitor, single point].
In the case of `O=C(O)CN(CC(=O)O)c1ccccc1OCCOc1ccccc1N(CC(=O)O)CC(=O)O`, the Potency is reported as inconclusive: 3.97 µM [inhibitor, partial curve].
In the case of `CCc1nnc(NC(=O)CSc2nnnn2C)s1`, the Potency is reported as inconclusive: 14.1 µM [inhibitor, partial curve].
`COc1ccccc1N1CCN(Cc2ccc(SC)cc2)CC1` was tested, and the Potency was active: 15.8 µM.
For `O=C1NC(=O)/C(=C/c2ccc(-c3cccc([N+](=O)[O-])c3)o2)S1`, the Potency was inconclusive: 39.8 µM [inhibitor, single point].
With `CCOC(=O)c1sc(=S)n(C)c1NC(=O)c1cccc(Br)c1` the Potency was inconclusive: 19.9 µM [inhibitor, partial curve].
With `Cc1[nH]c2ccccc2c1CN1CCC(Cc2ccccc2)CC1` the Potency was inconclusive: 19.9 µM [inhibitor, partial curve].
For `O=C(c1ccco1)c1cn[nH]c1-c1ccc(Cl)cc1O`, the Potency was inconclusive: 17.7 µM [inhibitor, single point].
For `COc1ccc(NC2CCCN(C(=O)CCN3CCCC3=O)C2)cc1OC` (configuration not stated), the Potency was inconclusive: 11.2 µM [inhibitor, partial curve].
For `COC(=O)[C@H](COC(C)(C)C)NC(=O)O[C@@H]1C(=O)c2cc(OC)ccc2O[C@H]1c1cccc(OC)c1`, the Potency was “inactive”.
For `CC(C)(C)NCc1cccn1-c1sc2c(c1C#N)CCCC2`, the Potency was inconclusive: 17.7 µM [inhibitor, partial curve].
For `CCN(CCNCC(O)COCc1ccc(Cl)cc1)c1cccc(C)c1` (configuration not stated), the Potency was active: 22.3 µM.
In the case of `CCOc1ncccc1C(=O)OCc1ccc(Cl)cc1`, the Potency is reported as “inactive”.
For `NNC(=S)NC1CC2CC1C1C=CCC21` (configuration not stated), the Potency was inconclusive: 17.7 µM [inhibitor, partial curve].
With `O=c1c2cc(N3CCOCC3)ccc2[nH]c(=S)n1Cc1ccco1` the Potency was inconclusive: 12.6 µM [inhibitor, partial curve].
In the case of `N#Cc1c(NC(=O)CCC(=O)O)sc2c1CCCCC2`, the Potency is reported as active: 15.8 µM.
With `COC(=O)CCC(=O)OC1(C)C(=O)C=C2C=C(C3CC3)N(c3ccc(OC)cc3)C=C2C1=O` (configuration not stated) the Potency was inconclusive: 0.397 µM [inhibitor, full curve].
With `Cc1cc(-c2nnc(SCC(=O)Nc3ccccc3C(F)(F)F)n2N)n[nH]1` the Potency was “inactive”.
For `CCCCn1c(-c2cccnc2)n[nH]c1=S`, the Potency was inconclusive: 9.98 µM [inhibitor, partial curve].
For `Cc1nc(NN)c2c3c(sc2n1)COC(C)(C)C3`, the Potency was inconclusive: 31.6 µM [inhibitor, single point].
For `Cc1cc2sc3ccccc3c(=O)c2c(C)c1O`, the Potency was “inactive”.
In the case of `O=C(Nc1nnc(-c2ccco2)o1)c1ccc(S(=O)(=O)N2CCOCC2)cc1`, the Potency is reported as active: 17.7 µM.
With `COc1ccc2[nH]c(=O)c(CNc3ccccc3OC)cc2c1` the Potency was inconclusive: 5.61 µM [inhibitor, partial curve].
In the case of `C=CCNC(=S)NNC(=O)c1cccnc1`, the Potency is reported as inconclusive: 9.98 µM [inhibitor, partial curve].
For `CCOC(=O)C1=C(C(C)=O)C(c2cccnc2)C(C#N)=C(N)O1` (configuration not stated), the Potency was inconclusive: 15.8 µM [inhibitor, partial curve].
In the case of `O=C(CN1CC(c2ccccc2)CC1=O)Nc1cccc(F)c1` (configuration not stated), the Potency is reported as “inactive”.
With `Cc1nnc(N2C(=O)C(O)=C(C(=O)c3ccco3)C2c2cccc3ccccc23)s1` (configuration not stated) the Potency was “inactive”.
`COc1ccc(-c2nn(-c3ccccc3)cc2/C=C/C(=O)O)cc1[N+](=O)[O-]` was tested, and the Potency was “inactive”.
In the case of `N#CNc1nc(O)cc(=O)[nH]1`, the Potency is reported as inconclusive: 15.8 µM [inhibitor, partial curve].

Source: PubChem BioAssay AID2451 (National Center for Advancing Translational Sciences (NCATS), 2010)
Note: nearly all actives have a fitted effect of over 55% in size.
Potency is the fitted concentration of half-maximal effect; tags give direction and shape of the fitted curve.
